# Data reported in the supplement of paper PMC3334620.
# Whole data set: some 33,000 sequences, median “E-score (-0.5 to 0.5)” near -0.041, cut for the highest 2% near 0.37. The list shows a part of the results.
# Biological target: T1, Ecm22 (UniProt Q05958)
# T1 sequence: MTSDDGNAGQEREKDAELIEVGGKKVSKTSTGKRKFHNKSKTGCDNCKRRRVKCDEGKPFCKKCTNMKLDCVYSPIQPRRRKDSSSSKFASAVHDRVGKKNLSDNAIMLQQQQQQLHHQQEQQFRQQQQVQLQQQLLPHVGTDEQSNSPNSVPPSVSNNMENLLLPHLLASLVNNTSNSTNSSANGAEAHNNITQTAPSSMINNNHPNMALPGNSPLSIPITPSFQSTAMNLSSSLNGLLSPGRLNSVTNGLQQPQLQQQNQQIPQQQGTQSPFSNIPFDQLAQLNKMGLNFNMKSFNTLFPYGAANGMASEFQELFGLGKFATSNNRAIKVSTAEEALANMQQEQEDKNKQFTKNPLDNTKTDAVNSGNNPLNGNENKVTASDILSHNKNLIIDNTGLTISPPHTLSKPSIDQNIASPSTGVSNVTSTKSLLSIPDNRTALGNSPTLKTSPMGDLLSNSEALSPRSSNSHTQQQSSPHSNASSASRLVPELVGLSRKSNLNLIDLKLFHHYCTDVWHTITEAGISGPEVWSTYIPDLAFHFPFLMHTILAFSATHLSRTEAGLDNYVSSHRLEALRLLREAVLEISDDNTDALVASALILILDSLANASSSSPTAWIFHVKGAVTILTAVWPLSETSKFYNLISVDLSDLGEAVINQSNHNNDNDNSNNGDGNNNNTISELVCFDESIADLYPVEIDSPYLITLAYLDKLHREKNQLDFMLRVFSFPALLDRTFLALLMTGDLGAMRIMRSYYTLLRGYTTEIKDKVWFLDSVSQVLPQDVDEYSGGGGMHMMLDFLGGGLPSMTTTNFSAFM
# Test: PBM E-score (8-mer binding enrichment) (E-score (-0.5 to 0.5)); higher = stronger / more preferred TF binding; most listed sequences are background and not binding sites
# Settings: protein concentration: 200 nM; construct: GST-full length
# Outline: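 Universal all-10-mer Agilent arrays, fresh or stripped once, were converted to double-stranded form by primer extension. GST-tagged yeast transcription factors from PURExpress in vitro transcription/translation, full-length or DNA-binding domain only, were applied at about 100-200 nM and detected with fluorescent anti-GST. After masliner normalisation, the Universal PBM Analysis Suite scored each ungapped eight-base word together with its reverse complement by E-score.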
row,Sequence,PBM E-score
1,AGAAGTAC,-0.0898
2,GAGATCAC,-0.024
3,TCACAGCA,-0.00995
4,GTCGTGAA,0.0408
5,TGCCAGCA,-0.279
6,GCGGTACC,0.00785
7,CTTGTTCA,-0.0939
8,ATAACGAA,0.185
9,ACAGTGGG,-0.138
10,AAAGTATA,-0.0184
11,CCGTACGG,0.378
12,CAGACCAA,-0.107
13,ACCTCCGC,-0.231
14,CAAGGTTA,-0.0596
15,AATAATTG,-0.0327
16,CAAGCACA,-0.256
17,AGCGACCG,0.277
18,AACGGCGG,0.224
19,CAACAGGG,-0.207
20,AGGCAGCG,-0.244
21,ATCAGAAG,-0.0721
22,CACCTCAC,-0.212
23,CTTGTATC,-0.0435
24,GCCGGACC,0.0998
25,GATGTCCA,-0.136

row,Sequence,PBM E-score
1,TGAGTGAA,-0.286
2,ATCCCTTG,-0.0101
3,GTAGGGCA,-0.0115
4,GAGATACC,0.0436
5,CAAGGAAG,-0.269
6,AAATCGTG,0.0433
7,GTGAAAGA,0.0681
8,TACCGCGA,0.144
9,CTGACCTC,-0.0554
10,AGTAGTTG,-0.162
11,GGAATTTA,0.109
12,CGGTGATA,-0.0352
13,AACCTCCC,-0.0604
14,CTATCGCC,-0.0638
15,AAGCAACT,-0.0406
16,CGCTAATC,0.172
17,CCGTTAGC,-0.0893
18,CAGATTCC,-0.263
19,AAAAAACG,0.186
20,ATACAATA,0.151
21,CATGAGAG,-0.123
22,ACCCTCGC,0.194
23,ACACCTCC,-0.189
24,AGGCGTTG,-0.0496
25,GTGGATCA,-0.187

row,Sequence,PBM E-score
1,ACCAATCT,-0.132
2,CTGATGAC,-0.0143
3,GCGGATGA,-0.00903
4,ACAACCCA,0.0104
5,AGTGCATC,-0.102
6,AAGGGAGG,-0.0153
7,GTAGTTGA,0.0597
8,CGTCGACG,-0.156
9,AAGGCGGA,-0.228
10,AGTGCACC,-0.128
11,ACACACAG,-0.0269
12,CATGCGGA,0.0553
13,CCAGGATA,0.0487
14,ACGTTATA,0.117
15,CGCACCCA,0.0848
16,CAGCACGC,-0.0215
17,ATGATGAG,-0.124
18,ACAACGGC,0.0125
19,GTCTACTA,0.0292
20,CGCTTCAG,-0.0166
21,CATCTTAA,0.0063
22,GCACCTCA,-0.244
23,CTCAACGC,-0.215
24,AACCTGAG,-0.0795
25,CGAGGTAG,0.0783

row,Sequence,PBM E-score
1,AAATGACG,-0.0464
2,GCAGGCCA,-0.00078
3,GAATATGA,-0.116
4,AGGGTCTA,-0.186
5,GAAAGAGC,0.0482
6,CCCAAACG,0.323
7,ATGCACGG,-0.148
8,CCCACGGC,-0.19
9,ATTCAGCC,-0.251
10,ACGGGGTC,0.145
11,ATCCCACA,-0.176
12,GGTGTAAC,0.132
13,CGAAAGAC,0.0459
14,ACGGCGCA,0.0596
15,ACCGTTGG,-0.266
16,CATTAGTC,-0.164
17,ACATGAGG,-0.236
18,CTTTTACA,-0.0936
19,AGCTCCTG,-0.168
20,TGAGTTAA,-0.185
21,AATAAAGG,-0.169
22,AGGGCACC,-0.209
23,CCCAAGAG,-0.153
24,AGAAGCCG,-0.0447
25,GCTAGTCA,-0.205

row,Sequence,PBM E-score
1,AGCGACTC,0.135
2,GTGGTGTA,0.0807
3,AATAAATA,0.281
4,GGTGAAAA,-0.0425
5,CGCAGAGA,-0.0886
6,CACCCGAG,0.197
7,AGCTATTC,-0.0449
8,ACTTGGCT,-0.179
9,CTAACAGA,-0.173
10,GGCGCTCA,-0.107
11,GATCTCCC,-0.0973
12,ACAACAAT,-0.109
13,ATGCAGTC,0.0133
14,ATATATCG,0.189
15,AAGTCGTA,0.433
16,CAGACCTC,-0.0126
17,ACTCCCTG,-0.321
18,GGGGGCAA,-0.228
19,AGTCAACA,-0.0527
20,CAGGGCAA,-0.227
21,AGAGCATC,-0.128
22,GGCGGCGA,-0.157
23,GTACAATA,0.0911
24,TACGGCGA,0.357
25,CCGAGTAC,0.24

row,Sequence,PBM E-score
1,CCTATAAC,-0.115
2,CAAAATAG,-0.111
3,AGCGACAG,0.305
4,AGCATGGA,-0.283
5,AACGTAAC,0.21
6,CATCAAGA,0.0177
7,AAAAGTCT,-0.149
8,TGAATACA,-0.0376
9,AGAACCGC,0.14
10,AGACACTC,-0.217
11,CGTGTGGA,-0.0117
12,TACCGCTA,0.0699
13,TAGCCGAA,0.0771
14,CTTAGTCC,-0.104
15,TCACTAGA,-0.0764
16,CAGTAATG,-0.161
17,ATACTCTA,0.0524
18,AACCCGTC,0.0827
19,GCAGTAAC,-0.036
20,GTCGCCGA,0.0874
21,ACTTCAAC,-0.0327
22,AAAAACTA,0.0932
23,GAGACACA,-0.237
24,ATTAGATG,0.137
25,CATTCAAC,-0.0303

row,Sequence,PBM E-score
1,CATCCGGC,-0.122
2,TAAGGGAA,0.171
3,TTAAAGAA,-0.0287
4,CGTTATAC,0.335
5,ACACCCAC,-0.0883
6,CCTCGGCC,-0.0633
7,CAAATAAG,-0.177
8,AGTAACTA,0.161
9,AATTGAGG,-0.113
10,GCCCAAGA,-0.196
11,AAGATCCT,-0.0266
12,ATATATCA,-0.0776
13,GTGGTCCA,-0.0936
14,GTGCATAA,-0.0669
15,ACCATGAA,-0.0282
16,ACCAAACT,0.0445
17,GCTTCCAC,-0.238
18,AGTTGGCC,-0.165
19,CGGGCGCC,-0.0939
20,ATGCCAGA,-0.0243
21,AGAGGGGC,-0.187
22,AATCACCC,-0.054
